Biological target: the molecule itself
Assay: cryo-EM structure

B1: human ferritin light chain, iron-free homopolymer (apoferritin) (natural protein)
chain: not shown
B1: binds.

From article PMC6502678 (Journal of structural biology, 2019)
